# Among all 94,000 compounds or so, about 6,200 (6.6%) were called active. The inconclusive results got no clear call from the source; some entries with a clear call stand among them for comparison. The call rests on the fitted dose curve; in most records, active means well fitted inhibition curve with a large enough effect; inconclusive means small, poorly fitted or top-dose-only effect; inactive means flat fitted curve, though single readings scatter. A potency beside an inconclusive call is a rough fit, not a confirmed value.
# Assay: Cytotoxic Profiling in HEK 293 Cell Line of Diverse Libraries Using Quantitative High-Throughput Screening; further: nearly all actives have a fitted effect of over 60% in size
# Settings: HEK 293 viability, ATP luminescence (CellTiter-Glo), 48-72 h; activity change, negative = cytotoxicity: at 115 µM (top of the series) unless noted; series mostly up to 115 µM
# In short: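 ATP-coupled CellTiter-Glo luminescence served as viability read-out, recorded 10 min after reagent addition at room temperature. HEK 293 cells, 250 cells/well, had been incubated with pintool-transferred compound for 48 or 72 hr at 37 degree Celsius.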
# On the % scale 0 is the no-effect control and ±100 the full control effect; potency means the concentration at half of the fitted maximal effect; tags describe the fitted curve by direction and shape.
Structure (SMILES),Potency,"activity change, negative = cytotoxicity",outcome
COc1ccc(C(=O)N2CCC3(CC2)C(OC)CN3c2cccc(F)c2)cc1 (centres undefined),"inconclusive: 89.1 µM [inhibitor, single point]",–,–
O=C(OCc1ccccc1)N1CCOCC12CCN(Cc1ccc3[nH]ccc3c1)CC2,"inconclusive: 79.4 µM [inhibitor, partial curve, poor fit]",–,–
CC(=O)N1CCC(C(=O)N2CCC(N3Cc4ccccc4C3=O)CC2)CC1,–,inactive: -5.45%,–
O=C1NCc2ccccc2CC12CCCN2Cc1cc(F)ccc1F (centres undefined),active: 35.5 µM,–,–
COCC1(CNS(=O)(=O)c2ccc(Cl)cc2)C[C@@H](O)[C@@H](O)C1 (some centres undefined),–,inactive: -21.6% [at 172 µM],–
O=C(NC1CCCCC1)c1ccc2nnc(-c3cc(C(F)(F)F)cc(C(F)(F)F)c3)n2c1,active: 35.5 µM,–,–
COCCN1CCCCCC(O)c2cc(C(=O)N3CCN(c4ccccc4OC)CC3)ccc21 (centres undefined),"inconclusive: 56.2 µM [inhibitor, partial curve, poor fit]",–,–
N#Cc1cccc(-c2cn3c(n2)N(C(=O)c2ccccn2)CCC3)c1,"inconclusive: 35.5 µM [inhibitor, full curve, poor fit]",–,–
O=c1cc(N2CCOCC2)oc2c(N3CCN(c4ccccn4)CC3)nccc12,"inconclusive: 70.8 µM [inhibitor, partial curve]",–,–
CN(C)c1nccnc1OC1CCN(C(=O)c2ccncc2)C1 (centres undefined),–,inactive: -0.414%,–
Cc1ccc(-n2cccc2CC(=O)NC(C)c2ccccn2)cc1 (centres undefined),–,inactive: -4.71%,–
COc1ccc(-c2n[nH]c3c2CC(=O)N(CCOc2ccccc2)C3)cc1F,active: 100 µM,–,–
O=C(c1ccccn1)N1CCCC2(CC(c3cccnc3)=NO2)C1 (centres undefined),–,inactive: -0.307%,–
Cc1ccsc1CN1CCOc2ccc(C(=O)NCc3ccccc3F)cc2C1,"inconclusive: 50.1 µM [inhibitor, partial curve, poor fit]",–,–
Cc1cc(C2CC(C(=O)NCc3ccco3)CN(C(=O)c3ccccc3)C2)ccc1F (centres undefined),"inconclusive: 35.5 µM [inhibitor, partial curve, poor fit]",–,–
O=C(NCc1cccc(F)c1)c1nc2c(o1)CCN(CC1CCCC1)CC2,–,inactive: -29.9% [at 172 µM],–
Cc1ccc(-c2ccc(CCC(=O)N[C@@H]3CCOC[C@H]3OCC(=O)O)o2)cc1,–,inactive: -11.2%,–
O=C(NC1CC1)C1CCCN1Cc1ccc(-c2cncnc2)cc1 (centres undefined),–,–,inactive
Cn1ccc2c(C(=O)NCC3CCC(=O)N3)nc(-c3ccccc3O)cc21 (centres undefined),"inconclusive: 112 µM [inhibitor, partial curve, poor fit]",–,–
Cc1ccc([S+](=O)([O-])N2CCC(C(=O)N3CCC(N4CCCC4=O)CC3)CC2)cc1,–,inactive: 3.64%,–
COCC1CN(C2CCC2)CC12CCN(C(=O)C1(c3ccccc3)CC1)CC2 (centres undefined),active: 31.6 µM,–,–
COc1ccc(CC(=O)N2CCCC(C(=O)N3CCC(c4nc5ncccc5[nH]4)CC3)C2)cc1 (centres undefined),–,inactive: -11.1%,–
Cc1ccc(N2CCN(C(=O)c3cc4n(n3)CC(c3ccc(Cl)cc3)OC4)CC2)cc1 (centres undefined),"inconclusive: 50.1 µM [inhibitor, partial curve, poor fit]",–,–
COc1ccc(-c2cc(N3CCC(NC(=O)c4cccc(F)c4)C3)n[nH]2)cc1 (centres undefined),"inconclusive: 70.8 µM [inhibitor, partial curve, poor fit]",–,–
O=C1CN(Cc2ccc(-c3ccsc3)cc2)CCN1c1cc(Cl)ncn1,active: 35.5 µM,–,–

Structure (SMILES),Potency,"activity change, negative = cytotoxicity",outcome
COc1ccc(CN2C(=O)[C@@H]3C[C@@H](O)CN3C3(CN(C4CCC4)C3)C2=O)cc1,–,inactive: 0.111% [at 172 µM],–
O=C(C1CC1)N1CCC2(CN[S+](=O)([O-])c3cnccc3O2)C1 (centres undefined),–,inactive: 0.49%,–
O=[S+]1([O-])NC2(CCN(Cc3ccc(OC(F)(F)F)cc3)C2)CNc2ccccc21 (centres undefined),active: 50.1 µM,–,–
NC(=O)c1ccc(OC2CCN(C(=O)c3ccc(F)cc3)CC2)nc1,–,inactive: -29.6%,–
COc1ccc(-c2cc(C(=O)Nc3ccc(F)cc3)c3cnn(C)c3n2)cc1,–,inactive: -9.33%,–
COc1ccccc1CN1CCOCC2(C1)CN([S+](=O)([O-])c1ccccc1)C2,"inconclusive: 112 µM [inhibitor, partial curve]",–,–
Cc1ccc(S(=O)(=O)N2CCCC(CNC(=O)c3cccs3)C2)cc1 (centres undefined),"inconclusive: 50.1 µM [inhibitor, partial curve, poor fit]",–,–
CC(C)[C@@H](NC(=O)[C@@H]1C[C@@H](NC(=O)Cc2cccs2)CCN1C(=O)CCC(=O)O)C(N)=O,–,inactive: -2.2%,–
O=C1Cc2c(-c3cccc(C(F)(F)F)c3)n[nH]c2CN1CCc1ccncc1,active: 89.1 µM,–,–
O=C(Cc1ccccc1)N1CCCC2(CC(c3cccnc3)=NO2)C1 (centres undefined),–,inactive: -4.12%,–
Cc1nn(-c2ccccc2)c2c1C(C(C)C)N(C1CN(C(=O)Nc3ccc(Cl)cc3)C1)C2=O (centres undefined),–,inactive: -11.1%,–
O=C(NCCc1ccc(Cl)cc1Cl)C1CNCCO1 (centres undefined),–,inactive: -2.49%,–
Cc1cccc(OCC(=O)N2CCC3(CC2)NC(=O)N(c2ccccc2Cl)N3)c1,"inconclusive: 39.8 µM [inhibitor, full curve, poor fit]",–,–
CCCCc1ccc(NC(=O)CN2C(=O)NC(c3ccccc3OCC)C3=C2COC3=O)cc1 (centres undefined),active: 31.6 µM,–,–
CCOc1ccccc1C(=O)N1CCN(C(=O)c2nnn3c2COC(c2ccc(Cl)cc2)C3)CC1 (centres undefined),active: 31.6 µM,–,–
CC(=O)c1cc(-c2nc(C3CCOC3)no2)cs1 (centres undefined),–,inactive: -32.6%,–
CC(=O)N1CCC([C@@H]2CN(Cc3ccccc3C(F)(F)F)C[C@H]2CO)CC1,–,inactive: -12.5%,–
COc1ccccc1-c1cc(C(=O)N2CCN(C(C)=O)CC2)c2cnn(C)c2n1,–,inactive: -9.14%,–
COc1ccc(C(=O)Nc2cc(C3CC3)nn2-c2ccccc2)cc1,–,inactive: -14.6%,–
COc1nccnc1NC1CCN(C(=O)NC2CCCCC2)CC1,–,inactive: 4.67%,–
COCCO[C@H]1C(=O)N(C2CCN(C(=O)c3ccco3)CC2)[C@H]1c1ccncc1,–,inactive: -5.27%,–
CS(=O)(=O)c1ccc(CN2CCN3C(=O)N(Cc4ccccn4)C[C@H]3C2)cc1,–,inactive: 0.14% [at 172 µM],–
O=C(c1cccnc1)N1CCC2(CC1)CC(c1cccc(C(F)(F)F)c1)=NO2,"inconclusive: 50.1 µM [inhibitor, partial curve, poor fit]",–,–
Cc1ccc(C)c2c(C)c(C(=O)N3CCCC(O)(CN4CCCC4)C3)[nH]c12 (centres undefined),"inconclusive: 79.4 µM [inhibitor, partial curve, poor fit]",–,–

# — PubChem BioAssay AID1345083 (National Center for Advancing Translational Sciences (NCATS), 2018)
